Measured values: PMC4336329 (PLoS ONE, 2015)
The whole screen tested about 310,000 compounds, of which about 14,000 (4.5%) showed an effect of 50% or more. The effect is printed as a negative number. This is one part of the list.

What follows are molecules tested against human ether-à-go-go-related gene (hERG) potassium channel (human, UniProt Q12809) (assay: primary screen, population patch clamp on CHO cells stably expressing hERG).
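Further: peak tail current of the secondary pulse compared with the same well before compound.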

Sequence of human ether-à-go-go-related gene (hERG) potassium channel (Q12809 whole entry, looked up): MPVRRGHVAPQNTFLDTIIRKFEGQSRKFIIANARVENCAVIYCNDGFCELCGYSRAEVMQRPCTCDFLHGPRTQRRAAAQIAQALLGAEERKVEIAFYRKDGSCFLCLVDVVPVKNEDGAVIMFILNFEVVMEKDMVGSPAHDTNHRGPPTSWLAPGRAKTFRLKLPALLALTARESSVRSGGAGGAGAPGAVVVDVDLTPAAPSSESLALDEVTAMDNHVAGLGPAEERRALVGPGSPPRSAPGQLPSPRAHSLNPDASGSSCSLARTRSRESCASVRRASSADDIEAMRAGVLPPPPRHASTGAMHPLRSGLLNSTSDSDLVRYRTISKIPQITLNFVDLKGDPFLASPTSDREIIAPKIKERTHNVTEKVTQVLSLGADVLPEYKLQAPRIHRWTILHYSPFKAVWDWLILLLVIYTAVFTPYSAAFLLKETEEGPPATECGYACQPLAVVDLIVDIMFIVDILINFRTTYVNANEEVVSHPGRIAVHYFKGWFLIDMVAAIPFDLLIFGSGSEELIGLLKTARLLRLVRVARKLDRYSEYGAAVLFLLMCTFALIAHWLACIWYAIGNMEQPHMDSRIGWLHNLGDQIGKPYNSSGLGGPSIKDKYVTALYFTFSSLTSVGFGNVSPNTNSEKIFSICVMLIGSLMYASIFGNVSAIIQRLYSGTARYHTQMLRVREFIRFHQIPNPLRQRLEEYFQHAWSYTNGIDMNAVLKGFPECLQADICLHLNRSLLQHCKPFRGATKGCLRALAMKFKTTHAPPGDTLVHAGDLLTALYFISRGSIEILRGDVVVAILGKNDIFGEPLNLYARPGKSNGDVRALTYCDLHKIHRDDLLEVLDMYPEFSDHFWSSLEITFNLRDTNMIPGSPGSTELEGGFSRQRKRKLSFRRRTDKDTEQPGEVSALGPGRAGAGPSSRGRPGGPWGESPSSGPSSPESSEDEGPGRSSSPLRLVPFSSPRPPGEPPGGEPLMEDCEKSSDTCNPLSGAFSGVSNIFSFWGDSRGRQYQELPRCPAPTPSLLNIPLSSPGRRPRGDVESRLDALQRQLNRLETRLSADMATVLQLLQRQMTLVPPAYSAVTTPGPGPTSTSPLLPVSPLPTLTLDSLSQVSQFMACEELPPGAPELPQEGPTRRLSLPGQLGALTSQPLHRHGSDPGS

Row | Structure (SMILES) | hERG current change (%, negative = inhibition) at 10uM [%]
1 | O=C(OCC(=O)N1CCCc2ccccc21)c1ccc(F)c(S(=O)(=O)N2CCOCC2)c1 | -23.7
2 | CCCc1c(C)c(C#N)c2nc3ccccc3n2c1NCCCN1CCOCC1 | -44
3 | CN(C(=O)C1CCC(=O)N(CCCN2CCCC2=O)C1)C(C1CC1)C1CC1 (stereo not drawn) | 12.1
4 | CC1(C)OC(=O)N(CC(=O)Nc2cccc(C(F)(F)F)c2)C1(C)O (stereo not drawn) | 11.2
5 | O=Cc1cn(Cc2ccc(F)cc2Cl)c2ccccc12 | 1.44
6 | CCC(=O)Nc1cc(-c2nn(C)c(=O)c3ccccc23)ccc1N1CCOCC1 | -0.794
7 | CCn1cc(S(=O)(=O)CC(=O)N2CCc3ccccc32)c2ccccc21 | -24.8
8 | Oc1ccc(/C=N/NC(=S)Nc2cccnc2)c(O)c1 | 17.5
9 | N/C(=N\OC(=O)N1CCOCC1)c1ccc(Cl)cc1 | 16.4
10 | O=C(CCN1C(=O)/C(=C/c2ccccc2Cl)SC1=S)NC1CCS(=O)(=O)C1 (stereo not drawn) | 14.1
11 | O=C(c1ccccn1)C1CCCN(Cc2nc(Cc3cccc(F)c3)no2)C1 (stereo not drawn) | -5.63
12 | O=C(NC1=NCCS1)c1cccc(Br)c1 | 22.2
13 | Cc1ccc(N2CCN(/N=C/c3c(C)nn(-c4ccccc4)c3Cl)CC2)cc1 | 7.33
14 | CCN(CC)S(=O)(=O)c1ccc(OC)c(NC(=O)c2ccc(=O)[nH]c2)c1 | -15.2
15 | COC(=O)CC(=O)c1ccc2c(c1)OCO2 | 4.48
16 | COc1ccc(C(C)C)cc1S(=O)(=O)N1CCN(c2ccccc2)CC1 | 23.9
17 | Cc1ccc(N(C(C)C(=O)Nc2cccc(N(C)S(C)(=O)=O)c2)S(C)(=O)=O)cc1 (stereo not drawn) | 8.34
18 | CC(=O)c1ccc(C(=O)N(CCN(C)C)c2nc3c(Cl)cccc3s2)cc1.Cl | -48.6
19 | CC(=O)N1N=C(c2ccccc2)OC12CCCC2 | -0.718
20 | Cn1c(SCC(=O)c2ccc(F)cc2)nnc1-c1ccccc1N | -1.7
21 | CCc1noc(C)c1C(=O)N1CCC(CCC(=O)Nc2cccc(C)c2)CC1 | -32.8
22 | CCc1cc(=O)oc2cc(C)c(CN3CCCC(C)C3)c(O)c12 (stereo not drawn) | -3.29
23 | COC(=O)c1cc(Oc2ccc(C(=O)OC)cc2N)cc(C(=O)OC)c1 | 11.2

Row | Structure (SMILES) | hERG current change (%, negative = inhibition) at 10uM [%]
24 | Cc1cccc(Nc2nnc(SC(C)C(=O)NC3CC3)s2)c1 (stereo not drawn) | -6.43
25 | CCOC(=O)/C=C/[C@H]1CC2(CCO1)SCCCS2 | -0.263
26 | COc1ccc(NC(=O)Cc2c(Cl)cccc2Cl)cn1 | 8.15
27 | CCC(Cc1ccccc1)NC(=O)CSc1ccsc1[N+](=O)[O-] (stereo not drawn) | 7.03
28 | CCN(CC)CCCN1C(=O)C(=O)/C(=C(/O)c2ccc3c(c2)OCCO3)C1c1ccco1 (stereo not drawn) | -6.06
29 | CN(Cc1ccccc1)CC(O)COc1ccc(CNCCOc2cccnc2)cc1 (stereo not drawn) | 5.79
30 | O=C(c1ccco1)N1CCN(c2ncccn2)CC1 | -18.2
31 | O=C(Nc1ccc2c(c1)OCCO2)Nc1ccc2c(c1)OCO2 | 21.4
32 | CC(OC(=O)c1cccnc1Cl)C(=O)Nc1ccc(S(N)(=O)=O)cc1 (stereo not drawn) | 44.5
33 | CCOC(=O)C1CCN(C(=O)/C=C/c2ccc3c(c2)OCO3)CC1 | 15
34 | C[C@H]1CC[C@@]2(O[C@@H](CCO)C[C@H](O)[C@H]2O)O1 | 9.6
35 | Cc1ccc(C(=O)NC(=S)Nc2ccc(NC(=O)c3cccc(Cl)c3)cc2)cc1 | 11.8
36 | COc1ccc(-c2cc3c(=O)n(CC(=O)NCCN4CCCC4)nc(C)n3n2)cc1 | -30.2
37 | CCOC(=O)N1CCN(C(=O)CSc2nnc(Cc3cccn3C)n2CCc2ccccc2)CC1 | 4.47
38 | O=C(O)c1ccc(NS(=O)(=O)c2cccc(C(=O)Nc3cccc(C(=O)O)c3)c2)cc1 | 11.1
39 | COc1ccc(CCN=C(NS(=O)(=O)c2ccc(Cl)cc2)c2ccccc2)cc1 | -37.5
40 | O=C(c1cc(COc2ccc3ncccc3c2)on1)N1CCCCCC1 | -7.67
41 | Cc1noc(C)c1C(=O)Nc1cccnc1 | 12.3
42 | COc1ccc(C2NC(=O)c3sc4nc(C)c(C(C)=O)c(-c5ccc(Cl)cc5)c4c3N2)cc1 (stereo not drawn) | 5.17
43 | Cc1ccc(C(=O)NC(=S)Nc2ccc(S(=O)(=O)N(C)c3ccccc3)cc2)cc1 | 22.6
44 | O=C(Nc1ccc(N2CCOCC2)cc1)C1CCN(S(=O)(=O)c2ccc3c(c2)OCCO3)CC1 | 9.77
45 | COC(=O)C(Cc1ccc(O)cc1)NC(=O)c1ccccc1OC (stereo not drawn) | -4.83
46 | CCOC(=O)[C@@H]1[C@H]2COc3ccccc3[C@@H]2N2C(=O)N(c3cccc(F)c3)C(=O)[C@]12C | -21.5

Row | Structure (SMILES) | hERG current change (%, negative = inhibition) at 10uM [%]
47 | CCCCCN(C(=O)NC(=O)NCCCC)S(C)(=O)=O | -12.5
48 | O=C(NC[P+](=O)O)OCc1ccccc1 | 11.6
49 | Cc1cccc(C)c1NC(=O)C(NC(=O)c1ccccn1)c1ccccc1[N+](=O)[O-] (stereo not drawn) | -3.43
50 | CCn1c(=O)c(=O)[nH]c2cc(C(=O)NC3CCCc4ccccc43)ccc21 (stereo not drawn) | 1.54
51 | S=c1[nH]nc(-c2ccncc2)n1/N=C/C=C/c1ccco1 | 5.67
52 | COc1ccc(OC)c(/C=C2\SC(N3CCCC(C)C3)=NC2=O)c1 (stereo not drawn) | -17
53 | CCC(C)NC(=O)C1CCC(=O)N1CCc1ccccc1 (stereo not drawn) | 4.88
54 | CCOC(=O)CSc1nnnn1-c1cc(OC)ccc1OC | 2.31
55 | CCSC1=C(C#N)C2(CCCCC2)C2=C(CC(C)(C)CC2=O)N1 | 13
56 | COc1ccc(-c2cnnn2-c2ccc(NC(=O)c3ccco3)cc2)cc1OC | -9.9
57 | Cc1ccc(NC(=O)CN2C(=O)NC3(CCc4ccccc43)C2=O)cc1S(=O)(=O)N1CCCCC1 (stereo not drawn) | 4.56
58 | COC(=O)c1sc(N)c(C(=O)OC)c1COC(=O)c1c(C)noc1C | -3.57
59 | COc1cc(C2NC(=O)NC(C)=C2C(=O)OCC2CCCO2)ccc1O (stereo not drawn) | -3.63
60 | Fc1cccc(CN2CCC(Cc3ccccc3)CC2)c1 | 5.12
61 | COCCn1c(SCC#N)nnc1-c1ccc([N+](=O)[O-])cc1 | -30.8
62 | CCCSc1ncnc2sc(C)c(C)c12 | 16.5
63 | N#Cc1cccc(NC(=O)CC2CCCC2)c1 | 9.05
64 | CCOC(=O)N1CCN(C(=O)CNC(=O)C23CC4CC(CC(C4)C2)C3)CC1 | 21.3
65 | C=CC1CN2CCC1CC2[C@@H](OC(=O)c1ccc(OC)cc1)c1ccnc2ccccc12 (stereo partly drawn) | -37.3
66 | CSc1nnc(C2CCCN2)n1C.Cl (stereo not drawn) | 3.72
67 | Cc1cccc(C(=O)NCCC(=O)Nc2ccc(F)c([N+](=O)[O-])c2)c1 | -20.7
68 | O=C(CC1CCCCC1)NCc1nc(-c2ccccc2)no1 | 8.22
69 | Cc1cc(C)c(C#N)c(SCc2cn3ccccc3n2)n1 | -28.9

Row | Structure (SMILES) | hERG current change (%, negative = inhibition) at 10uM [%]
70 | Cc1oc2c(C)c(O)ccc2c(=O)c1-c1ccc2ccccc2n1 | 26.2
71 | CCOC(=O)N1CCC(NC(=O)Cn2cc3c(n2)CCC(C)C3)CC1 (stereo not drawn) | 7.39
72 | O=c1oc2ccccc2n1CCCCCn1c(=O)oc2ccccc21 | -36
73 | CCOC(=O)C1=C(C)Nc2nnnn2C1c1c[nH]c2ccccc12 (stereo not drawn) | -5.75
74 | O=C(O)Cc1c(C(=O)O)nnn1-c1cccc(C(F)(F)F)c1 | 19.1
75 | CC(CCc1ccccc1)NC(=O)C(=O)NCCO (stereo not drawn) | 4.98
76 | CCC(C(=O)NC1CCCC1)N(C(=O)Cn1nnc(-c2ccc(C)o2)n1)c1cccc(OC)c1 (stereo not drawn) | 5.54
77 | CN(Cc1ccccc1)C(=O)c1[nH]cnc1C(=O)N[C@@H](Cc1ccccc1)C(=O)OC(C)(C)C | -3.51
78 | CCc1cc2c(CN3CCN(CC)CC3)cc(=O)oc2cc1O | -8.81
79 | CCNC(=S)N(CCc1ccc(S(N)(=O)=O)cc1)C1CC(=O)N(c2ccccc2)C1=O (stereo not drawn) | -3.93
80 | c1ccc2c(c1)Cn1nnnc1-2 | -5.83
81 | CC(C)NC(=O)/C(C#N)=C/c1ccc(N(C)C)o1 | 4.56
82 | CCCCS(=O)(=O)CC(COc1ccccc1)OC(=O)c1ccccc1 (stereo not drawn) | -0.141
83 | C=CCSC1=N/C(=C\c2cccnc2)C(=O)N1c1ccc(OC)cc1 | 12.7
84 | O=C(NCCCN1CCOCC1)c1ccc(NC(=O)C2COc3ccccc3O2)cc1 (stereo not drawn) | -33.1
85 | CC1CCCC(NC(=O)c2cc(S(=O)(=O)N3CCOCC3)ccc2F)C1C (stereo not drawn) | -5.64
86 | O=C1N=NC(=O)N1c1ccccc1 | 7.9
87 | Cc1c(NS(=O)(=O)N2CCCCC2)c(=O)n(-c2ccccc2)n1C | 13.4
88 | O=C(CCl)N=c1sccn1Cc1ccc(Cl)cc1Cl | 51.5
89 | COC(=O)c1ccc(NC(=O)c2ccc3nccnc3c2)cc1 | 10.1
90 | Cc1ccc(-c2cc(C(=O)Nc3cccnc3)c3ccccc3n2)s1 | -6.86
